US20080112933A1 (priority 2004, published 2008)

Assays:
lymph node lymphocytes = details: mouse, in vivo
bone marrow lin− cells [1] = details: mouse, in vivo
bone marrow lin− cells [2] = format: cell-based, mouse

## Cc1ccc(C(=O)Nc2ccc(S(=O)(=O)O)c3cc(S(=O)(=O)O)cc(S(=O)(=O)O)c23)cc1NC(=O)c1cccc(NC(=O)Nc2cccc(C(=O)Nc3cc(C(=O)Nc4ccc(S(=O)(=O)O)c5cc(S(=O)(=O)O)cc(S(=O)(=O)O)c45)ccc3C)c2)c1 [suramin]
Lymph node lymphocytes
  homing of lymphocytes to the lymph nodes: no effect on their homing to the lymph nodes
Bone marrow lin− cells [1]
  homing of cells to the bone marrow: did result in an impairment of the cells to home to the bone marrow
Bone marrow lin− cells [2]
  transmigration towards SDF-1α: no effect on the transmigration
